Reference: patent US12116388B2, “Amylin receptor agonists” (Novo Nordisk A/S, priority 2022, dated 2024)
At least one structure is not confirmed: it was looked up by name or label, or the drawing left a doubt. Starred links: 1 amine or outer side, 2 acyl side, 3 side chain; linkers in the order of their positions; H or OH if unused. Residues, ends and D or L forms follow the SMILES beside them. Groups on a side chain read outwards from the residue. *: point of attachment. C20 diacid = O=C(O)CCCCCCCCCCCCCCCCCCC(=O)*; C18 diacid = O=C(O)CCCCCCCCCCCCCCCCC(=O)*; γGlu = O=C(O)[C@H](CCC(=O)[*:2])N[*:1]

Tested on: Sprague Dawley (SD) rats
Assay: Acute food intake in ad libitum fed rat model
Assay type: in vivo
Conditions: single s.c. administration, negative value = reduced food intake
Description: Lyophilised compound was dissolved in vehicle, 8 mM phosphate, 250 mM glycerol, 0.007% polysorbate 20, and pH was adjusted to 7.4 with 1N NaOH.
Normal weight Sprague Dawley (SD) rats from Taconic Europe, Denmark, were used for the acute food intake studies. The purpose of these studies was to test in vivo effect on food intake and to provide an indication of the compounds' duration of action. Experiments were conducted with permission from the Danish Animal Experiments Inspectorate and were performed in accordance with the guidelines of the Danish legislation governing animal experimentation (1987) as well as the National Institutes of Health (publication number 85-23) and the European Convention for the Protection of Vertebrate Animals used for Experimental and other Scientific Purposes (Council of Europe No 123, Strasbourg 1985).
Prior to study start, rats were acclimatized to the experimental settings for 14 days. During this period, the animals were handled at least 2 times. Immediately upon arrival, rats were put on a reversed light cycle (dark from 10 am-10 pm or 11 am-11 pm) and were transferred into one of three following food intake measuring systems: FeedWin, BioDaq or HM2. Rats were single housed in the FeedWin and BioDaq system and were housed three a cage in the HM2 system (rats were in this case ID-chipped). During the acclimatization period, in which the rats get used to the new light cycle and diet, the animals had free access to food and water. […] Each amylin analogue was tested in a group of 5-6 rats. A vehicle group of 5-6 rats was included in each experiment and were used as reference point. In case of studies in the HM2 system, rats in same cage received different treatments to eliminate interference of potential technical variations between cages. At start of treatment, rats were dosed once (subcutaneously) based on body weight with a protracted amylin analogue, receiving a dose of 3 nmol/kg. The time of dosing was recorded for each rat.
After dosing, rats were returned to their home cages, where they had access to food and water. Food consumption was recorded individually and continuously by on-line registration for up to 72 h post dosing. At the end of the experiment, body weight was measured again, and animals were euthanized by CO2 overdose.

Row | Structure (SMILES) | Food intake relative to vehicle (%) 0-24 hr, 3 nmol/kg [%] | Food intake relative to vehicle (%) 24-48 hr, 3 nmol/kg [%] | Food intake relative to vehicle (%) 48-72 hr, 3 nmol/kg [%]
1 | CC[C@H](C)[C@H](NC(=O)[C@@H]1CCCN1C(=O)CNC(=O)[C@H](Cc1ccccc1)NC(=O)[C@H](CC(N)=O)NC(=O)[C@H](CC(=O)O)NC(=O)[C@H](CO)NC(=O)[C@H](CO)NC(=O)[C@H](Cc1c[nH]cn1)NC(=O)[C@H](Cc1c[nH]cn1)NC(=O)[C@H](CC(C)C)NC(=O)[C@H](Cc1ccccc1)NC(=O)[C@H](CCC(=O)O)NC(=O)[C@H](C)NC(=O)[C@H](CC(C)C)NC(=O)[C@H](CCCNC(=N)N)NC(=O)[C@H](C)NC(=O)[C@@H](NC(=O)[C@H](CCC(N)=O)NC(=O)[C@H](C)NC(=O)[C@@H](NC(=O)[C@H](CO)NC(=O)[C@H](CC(C)C)NC(=O)[C@H](Cc1c[nH]cn1)NC(=O)[C@H](CO)NC(=O)[C@H](C)NC(=O)CC[C@H](NC(=O)CCCCCCCCCCCCCCCCCCC(=O)O)C(=O)O)[C@@H](C)O)[C@@H](C)O)C(=O)N[C@@H](CC(C)C)C(=O)N1CCC[C@H]1C(=O)N1CCC[C@H]1C(=O)N[C@H](C(=O)N[C@@H](CC(=O)O)C(=O)N[C@H](C(=O)NCC(=O)N[C@@H](CO)C(=O)N[C@@H](CC(N)=O)C(=O)N[C@H](C(=O)N1CCC[C@H]1C(N)=O)[C@@H](C)O)C(C)C)[C@@H](C)O [Compound 2, N^1-[(4S)-4-carboxy-4-(19-carboxynonadecanoylamino)butanoyl]-[Ala1,Ser2,His3,Leu4,Ser5,Ala7,Gln8,Ala10,Glu14,His17,Asp21,Pro25,Pro28,Pro29,Asp31,Pro37]-human amylin] ({C20 diacid-γGlu}-ASHLSTAQTARLAEFLHHSSDNFGPILPPTDVGSNTP-NH2) | −45 | −93 | −47
2 | CC[C@H](C)[C@H](NC(=O)[C@H](CCCCNC(=O)CC[C@H](NC(=O)CCCCCCCCCCCCCCCCC(=O)O)C(=O)O)NC(=O)CNC(=O)[C@H](Cc1ccccc1)NC(=O)[C@H](CC(N)=O)NC(=O)[C@H](CC(=O)O)NC(=O)[C@H](CO)NC(=O)[C@H](CO)NC(=O)[C@H](Cc1c[nH]cn1)NC(=O)[C@H](Cc1c[nH]cn1)NC(=O)[C@H](CC(C)C)NC(=O)[C@H](Cc1ccccc1)NC(=O)[C@H](CCC(=O)O)NC(=O)[C@H](C)NC(=O)[C@H](CC(C)C)NC(=O)[C@H](CCCNC(=N)N)NC(=O)[C@H](CCC(N)=O)NC(=O)[C@@H](NC(=O)[C@H](CCC(N)=O)NC(=O)[C@H](C)NC(=O)[C@@H](NC(=O)[C@H](CO)NC(=O)[C@H](CC(C)C)NC(=O)[C@H](CCC(N)=O)NC(=O)[C@H](CO)NC(=O)[C@H](C)NC(C)=O)[C@@H](C)O)[C@@H](C)O)C(=O)N[C@@H](CC(C)C)C(=O)N1CCC[C@H]1C(=O)N1CCC[C@H]1C(=O)N[C@H](C(=O)N[C@@H](CC(=O)O)C(=O)N[C@H](C(=O)NCC(=O)N[C@@H](CO)C(=O)N[C@@H](CC(N)=O)C(=O)N[C@H](C(=O)N1CCC[C@H]1C(N)=O)[C@@H](C)O)C(C)C)[C@@H](C)O [Compound 18, N^1-acetyl,N{Epsilon-25}-[(4S)-4-carboxy-4-(17-carboxyheptadecanoylamino)butanoyl]-[Ala1,Ser2,Gln3,Leu4,Ser5,Ala7,Gln8,Glu14,His17,Asp21,Lys25,Pro28,Pro29,Asp31,Pro37]-human amylin] (Ac-ASQLSTAQTQRLAEFLHHSSDNFGK([γGlu-C18 diacid])ILPPTDVGSNTP-NH2) | −72 | −61 | 3
3 | CC[C@H](C)[C@H](NC(=O)[C@@H]1CCCN1C(=O)CNC(=O)[C@H](Cc1ccccc1)NC(=O)[C@H](Cc1c[nH]cn1)NC(=O)[C@H](Cc1c[nH]cn1)NC(=O)[C@H](CC(C)C)NC(=O)[C@H](Cc1ccccc1)NC(=O)[C@H](CCC(=O)O)NC(=O)[C@H](C)NC(=O)[C@H](CC(C)C)NC(=O)[C@H](CCCNC(=N)N)NC(=O)[C@H](CCC(N)=O)NC(=O)[C@@H](NC(=O)[C@H](CCC(N)=O)NC(=O)[C@H](C)NC(=O)[C@@H](NC(=O)[C@H](CO)NC(=O)[C@H](CC(C)C)NC(=O)[C@H](Cc1c[nH]cn1)NC(=O)[C@H](CO)NC(=O)[C@H](C)NC(=O)CC[C@H](NC(=O)CCCCCCCCCCCCCCCCCCC(=O)O)C(=O)O)[C@@H](C)O)[C@@H](C)O)C(=O)N[C@@H](CC(C)C)C(=O)N1CCC[C@H]1C(=O)N1CCC[C@H]1C(=O)N[C@H](C(=O)N[C@@H](CC(=O)O)C(=O)N[C@H](C(=O)NCC(=O)N[C@@H](CO)C(=O)N[C@@H](CCC(=O)O)C(=O)N[C@H](C(=O)N1CCC[C@H]1C(N)=O)[C@@H](C)O)C(C)C)[C@@H](C)O [Compound 4, N^1-[(4S)-4-carboxy-4-(19-carboxynonadecanoylamino)butanoyl]-[Ala1,Ser2,His3,Leu4,Ser5,Ala7,Gln8,Glu14,His17,Pro25,Pro28,Pro29,Asp31,Glu35,Pro37],des-(19-22)-human amylin] ({C20 diacid-γGlu}-ASHLSTAQTQRLAEFLHHFGPILPPTDVGSETP-NH2) | −61 | −89 | −45
4 | CC[C@H](C)[C@H](NC(=O)[C@H](C)NC(=O)CNC(=O)[C@H](Cc1ccccc1)NC(=O)[C@@H]1CCCN1C(=O)[C@H](CC(=O)O)NC(=O)[C@H](CO)NC(=O)[C@H](CO)NC(=O)[C@H](Cc1c[nH]cn1)NC(=O)[C@H](Cc1c[nH]cn1)NC(=O)[C@H](CC(C)C)NC(=O)[C@H](Cc1ccccc1)NC(=O)[C@H](CCC(=O)O)NC(=O)[C@H](C)NC(=O)[C@H](CC(C)C)NC(=O)[C@H](CCCNC(=N)N)NC(=O)[C@H](C)NC(=O)[C@@H](NC(=O)[C@H](CCC(N)=O)NC(=O)[C@H](C)NC(=O)[C@@H](NC(=O)[C@H](CO)NC(=O)[C@H](CC(C)C)NC(=O)[C@H](Cc1c[nH]cn1)NC(=O)[C@H](CO)NC(=O)[C@H](C)NC(=O)CC[C@H](NC(=O)CCCCCCCCCCCCCCCCC(=O)O)C(=O)O)[C@@H](C)O)[C@@H](C)O)C(=O)N1CCC[C@H]1C(=O)N[C@@H](CO)C(=O)N[C@@H](CO)C(=O)N[C@H](C(=O)N[C@@H](CC(=O)O)C(=O)N[C@H](C(=O)NCC(=O)N1CCC[C@H]1C(=O)N[C@@H](CC(=O)O)C(=O)N[C@H](C(=O)N[C@@H](Cc1ccc(O)cc1)C(N)=O)[C@@H](C)O)C(C)C)[C@@H](C)O [Compound 37, N^1-[(4S)-4-carboxy-4-(17-carboxyheptadecanoylamino)butanoyl]-[Ala1,Ser2,His3,Leu4,Ser5,Ala7,Gln8,Ala10,Glu14,His17,Asp21,Pro22,Pro27,Asp31,Pro34,Asp35]-human amylin] ({C18 diacid-γGlu}-ASHLSTAQTARLAEFLHHSSDPFGAIPSSTDVGPDTY-NH2) | −82 | −89 | −29
